About 800 (1.6%) of roughly 50,000 compounds showed an effect of 50% or more. The list shows a part of the results.
These compounds were tested against Bcl-2-like protein 10 (Homo sapiens) (UniProt Q9HD36) (assay: Phenotype converters, Bcl-B/TR3 peptide binding displacement, primary biochemical FP (AID 1240;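 also: 0% = Bcl-B with tracer peptide and DMSO and 100% = tracer peptide lacking Bcl-B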)). Settings: GST-Bcl-B / FITC-TR3 peptide fluorescence polarization; stronger effect = higher value; compound at 3.75 mg/L.
Sequence of UniProt Q9HD36 (Q9HD36 whole entry, looked up): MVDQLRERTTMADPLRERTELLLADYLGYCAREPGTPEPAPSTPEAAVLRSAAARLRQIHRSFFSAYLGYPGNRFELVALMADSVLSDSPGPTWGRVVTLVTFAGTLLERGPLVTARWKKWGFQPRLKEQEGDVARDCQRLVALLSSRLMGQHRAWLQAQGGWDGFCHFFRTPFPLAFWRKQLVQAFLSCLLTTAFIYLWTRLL

Row | Compound | displacement [%]
1 | Cc1c(Cl)c([N+](=O)[O-])nn1CC(=O)Nc1cc(C(F)(F)F)ccc1Cl | 13
2 | COc1ccc(OC)c(C(=O)c2ccc(C(=O)c3cc(OC)ccc3OC)cc2)c1 | -4.8
3 | Cc1c(C(=O)Nc2ccc(Cl)cc2)sc(N)c1C(=O)OC(C)C | -3.4
4 | O=C(COc1ccc2ccccc2c1)Nc1ccccc1CO | -10.1
5 | Cc1ccc(S(=O)(=O)Nc2ccccc2C(=O)O)cc1 | 2.1
6 | C=CCc1cccc(/C=N/NC(=O)CSc2ccccn2)c1O | -17.4
7 | CCC(C)c1ccc(NC(=O)c2ccc(Br)o2)c(O)c1 (stereo not given) | -4
8 | CCN(CC)C(=S)SC1CC(=O)N(c2ccccc2)C1=O (stereo not given) | 10
9 | Clc1ccccc1OCCCCn1ccnc1 | 8.5
10 | O=C(c1ccccc1)c1ccc2nc(-c3ccc(NC(=O)c4ccccc4Cl)cc3)[nH]c2c1 | -9.3
11 | COc1ccc(CNc2ncn[nH]2)cc1 | 17.1
12 | CN(CCN(C)/N=C/c1ccc(N(C)C)cc1)/N=C/c1ccc(N(C)C)cc1 | 0.8
13 | O=C(NCC1CCS(=O)(=O)C1)OC1CCCCC1 (stereo not given) | 2
14 | Cc1[nH]c2ccc(C(=O)O)cc2c(=O)c1CCC(=O)O | -1.1
15 | O=C(Nc1ccccc1Cl)C1CN(S(=O)(=O)c2ccccc2)CCN1S(=O)(=O)c1ccccc1 (stereo not given) | 0.1
16 | CCNC(=S)NN=Cc1ccc(OCCOc2ccccc2C)cc1 | -5.5
17 | COc1ccc(C)cc1NC(=O)C(=O)NCc1ccco1 | -16.4
18 | Cc1sc(NC(=O)C2C3C=CC(C3)C2C(=O)O)c(C(N)=O)c1C (stereo not given) | 2.8
19 | O=[N+]([O-])c1ccc(CN2CCN(Cc3cccnc3)CC2)cc1 | -1.7
20 | c1ccc2c(c1)nc(N1CCCCC1)c1nncn12 | -8.5
21 | O=C(N/N=C\c1cn(Cc2ccc(Cl)c(Cl)c2)c2ccccc12)c1ccc([N+](=O)[O-])cc1 | -14.8
22 | COc1ccc(-n2nc3cc(C)c(NC(=O)c4ccco4)cc3n2)cc1 | 5.1
23 | CCOc1cc(C2Nc3ccccc3NC3=C2C(=O)CC(c2ccc(OC)cc2)C3)cc(Cl)c1O (stereo not given) | -0.3
24 | COC(=O)C1=CN(Cc2ccc(OC)cc2)C=C(C(=O)OC)C1c1cccs1 | 2.9
25 | O=C(COc1ccc(Cl)cc1Br)N/N=C/c1cccc(OC(=O)c2cccs2)c1 | 12.6
26 | O=C(COc1ccc(Cl)cc1Cl)n1cc([N+](=O)[O-])cn1 | -1.7
27 | CCCCCCCC(=O)CCCC(=O)Nc1ccc(C)cc1 | 15.9
28 | Cc1ccc(OCC(=O)Nc2ccc(C)c(C)c2)cc1 | 14.5

Row | Compound | displacement [%]
29 | Oc1ccccc1C=Nc1cc2c(cc1Br)OCCO2 | -4
30 | O=C(NC(=S)Nc1ccc(Cl)cc1)c1ccco1 | 3.1
31 | CC1CCN(C(=O)Nc2cccc(Cl)c2)CC1 | 6.4
32 | Cc1ccccc1C(=O)Nn1cnnc1 | 2.4
33 | O=C1/C(=C\c2ccc(O)c(O)c2)SC(=S)N1c1cccc(Cl)c1 | 19.2
34 | Cc1[nH]c2ccc(Br)cc2c1CC(=O)NNS(=O)(=O)c1ccccc1 | -2.9
35 | COc1ccccc1OCCNC(=O)Nc1ccc(Br)cc1 | -11.2
36 | O=c1cc(C(F)(F)C(F)F)oc2c1ccc1ccccc12 | 7.6
37 | Cc1ccc(OCC(=O)N2CCCCC2)c(Br)c1 | -7.8
38 | O=C(Nc1ccc(Cl)cn1)c1cccc(OCc2ccccc2)c1 | 8.4
39 | N#CC1=C(N)n2c(s/c(=C\c3ccc4c(c3)OCO4)c2=O)=C(C#N)C1c1ccc2c(c1)OCO2 (stereo not given) | -2.3
40 | Cc1cccc(C)c1OCCCCCCc1c(C)n[nH]c1C | -6.7
41 | O=C(c1cccnc1)N1CCN(C(=O)C(c2ccccc2)c2ccccc2)CC1 | -16.6
42 | O=C(O)c1ccc(-c2ccc(C=C3C(=O)c4ccccc4C3=O)o2)cc1Cl | 25.2
43 | NC1=NC(=O)/C(=C/c2ccccc2OCc2ccc([N+](=O)[O-])cc2)S1 | 7.4
44 | CC1=NC(=S)C(C#N)C(c2ccccc2)=C1 (stereo not given) | 6.3
45 | COc1ccc(-n2c(C)nc(N)c2C(=O)c2ccccc2)cc1 | -5.1
46 | O=[N+]([O-])c1cccc(S(=O)(=O)Nc2ccc(Oc3ccccc3)cc2)c1 | -10.7
47 | CC(C)(C)c1ccccc1OCC(=O)Nc1cccc(Cl)c1 | 8.8
48 | C/C(=N\NC(=O)c1ccc2c(c1)OCO2)c1ccc(NC(=O)CCCC(=O)O)cc1 | -3.2
49 | O=S(=O)(Nc1ccccn1)c1cc(Cl)c(Cl)cc1Cl | -7.4
50 | COc1ccc(CCN=CC2=C(O)CC(c3ccccc3)CC2=O)cc1 (stereo not given) | -5
51 | O=C(CSc1nc2ccc([N+](=O)[O-])cc2s1)Nc1ccc(Br)cc1 | 49.9
52 | Cc1ccc2c(Cl)c(C(=O)Nc3nncs3)sc2c1 | -6.2
53 | CCOC(=O)c1[nH]cnc1C(=O)Nc1ccc([N+](=O)[O-])cc1 | 15
54 | O=C1c2ccc3c4c(ccc(c24)C(=O)N1CCOc1ccccc1)CC3 | 15.3
55 | CCCCOC(=O)c1nc2nc(C)cc(C)n2n1 | -13.3
